Laboratory results as given in PubChem BioAssay AID1645882 (National Center for Advancing Translational Sciences (NCATS), 2021).
Where “and” joins values, the source holds several entries; their conditions need not be identical. Identical values can stand only once. About 120 (0.75%) of roughly 16,000 compounds were called active. About 4% were inconclusive and are not listed. The call rests on the fitted dose curve; in most records, active means well fitted inhibition curve with a large enough effect; inconclusive means small, poorly fitted or top-dose-only effect; inactive means no such curve, though single readings can be large or run the other way. The list shows a part of the results. Some compounds were tested as several samples or in several runs, with calls that do not always agree.

Molecular target: Rap guanine nucleotide exchange factor 3 (Homo sapiens) (UniProt O95398)
Assay: Validation qHTS for antagonist of cAMP-regulated guanine nucleotide exchange factor 3 (EPAC1); further: nearly all actives have a fitted effect of over 75% in size;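 on activity change, negative = inhibition: plate controls were DMSO for no effect and ATA control for full effect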
Details: EPAC1 Rap1B-BODIPY-GDP exchange, fluorescence; series mostly up to 150 µM; activity change, negative = inhibition: at the top concentration
Summary of the method: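 EPAC1 (100 nM) mixed with 250 nM RAP1B-BODIPY-GDP and 50 uM GDP; compounds in concentration series, 5 min at room temperature. Fluorescence (ex 480/em 540 nm) read every 5 min for 30 min; normalized to ATA control and DMSO.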
Potency means the concentration at half of the fitted maximal effect.

Sequence of UniProt O95398 (O95398 whole entry, looked up): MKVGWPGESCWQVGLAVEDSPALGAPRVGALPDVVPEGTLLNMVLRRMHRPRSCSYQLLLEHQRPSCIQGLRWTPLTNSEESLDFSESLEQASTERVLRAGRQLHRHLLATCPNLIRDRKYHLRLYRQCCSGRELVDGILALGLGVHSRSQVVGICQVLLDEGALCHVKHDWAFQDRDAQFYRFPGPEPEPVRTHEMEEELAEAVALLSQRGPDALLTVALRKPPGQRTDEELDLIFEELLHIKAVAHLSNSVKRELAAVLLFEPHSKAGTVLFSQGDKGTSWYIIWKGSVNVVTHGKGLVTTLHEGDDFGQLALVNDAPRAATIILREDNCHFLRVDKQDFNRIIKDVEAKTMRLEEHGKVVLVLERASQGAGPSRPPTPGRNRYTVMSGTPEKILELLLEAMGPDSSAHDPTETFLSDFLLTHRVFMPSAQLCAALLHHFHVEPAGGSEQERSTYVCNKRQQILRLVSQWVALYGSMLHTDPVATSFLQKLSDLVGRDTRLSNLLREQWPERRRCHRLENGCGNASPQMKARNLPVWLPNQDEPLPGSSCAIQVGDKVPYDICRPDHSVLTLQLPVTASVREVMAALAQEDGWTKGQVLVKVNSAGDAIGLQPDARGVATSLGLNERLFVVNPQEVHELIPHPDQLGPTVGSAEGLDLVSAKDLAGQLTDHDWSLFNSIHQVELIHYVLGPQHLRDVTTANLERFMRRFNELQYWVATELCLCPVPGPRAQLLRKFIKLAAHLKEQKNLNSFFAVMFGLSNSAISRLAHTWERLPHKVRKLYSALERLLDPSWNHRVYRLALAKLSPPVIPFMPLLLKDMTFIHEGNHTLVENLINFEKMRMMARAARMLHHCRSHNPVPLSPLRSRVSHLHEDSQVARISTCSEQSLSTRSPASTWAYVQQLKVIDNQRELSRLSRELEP

| SMILES | activity change, negative = inhibition | Potency |
| --- | --- | --- |
| CC(=O)OC1CC[C@]2(C)C(CC(OC(C)=O)[C@]3(C)C2CC[C@@]2(C)C(c4ccoc4)OC(=O)C4O[C@]432)C1(C)C (some centres not stated) | inactive: -21.9% | – |
| Cn1cccc1C(=O)N1CCC2(CC1)CCN(C(c1ccccc1)c1ccccc1)CC2 | inactive: -14.5% | – |
| COc1ccc(C(=O)NCc2cccnc2)cc1C(=O)NCc1cccnc1 | inactive: 2.17% [at 75.8 µM] | – |
| COCc1c(C(C)C)nc(C(C)C)c(/C=C/[C@@H](O)C[C@@H](O)CC(=O)O)c1-c1ccc(F)cc1 | inactive: 1.01% | – |
| COc1ccc(-c2nc3cc(C)ccc3cc2CN(C(=O)c2csc(C)n2)C2CC2)cc1OC | inactive: -6.54% | – |
| CNc1ncncc1-c1ccccc1C | inactive: 1.63% | – |
| OC(CCN1CCCCC1)(c1ccccc1)C1CC2C=CC1C2 (configuration not stated) | inactive | – |
| COCCn1c(=O)c(-c2ccccc2)nc2cnc(Oc3ccccc3)nc21 | inactive: -20% | – |
| COc1cc(=O)n2c(c1C(=O)NC(C)c1ccco1)CCN(Cc1cc(C)ccc1C)CC2 (configuration not stated) | inactive: 11.8% | – |
| C[C@@]12C(=O)OC(=O)[C@]1(C)C1CCC2O1 | inactive: -14.7% [at 75.8 µM] | – |
| Cc1ncc([N+](=O)[O-])n1CCO | inactive: 20.4% | – |
| CSCC[C@H](NC(=O)[C@H](Cc1ccccc1)NC[C@@H](NC[C@@H](N)CS)C(C)C)C(=O)O | inactive: 10.5% | – |
| CCc1nc2cc(C(=O)N3CCC[C@H]3CO)cc(NC(=O)c3ccccc3OC)c2n1C | inactive: 8.8% | – |
| CCN(CC)CC#CCOC(=O)C(O)(c1ccccc1)C1CCCCC1 (configuration not stated) | inactive | – |
| COc1ccccc1CNc1nc(-c2ccccc2OC)nc2ccccc12 | inactive: -8.67% | – |
| CCN(CC)CCSC(=O)C(c1ccccc1)c1ccccc1 | inactive | – |
| Cc1nc2sccn2c1CN1CCC2(CC1)CC2C(=O)Nc1ccc2c(c1)OCO2 (configuration not stated) | inactive: 12.8% | – |
| COC(=O)[C@@H]1CCCN1Cc1ccc2c(c1)CN(Cc1cccn1-c1ncccn1)CCO2 | inactive: 22.8% | – |
| Cn1c(=O)c(-c2ccc(Cl)cc2)nc2cnc(Oc3cccc(Cl)c3)nc21 | inactive: 0.506% | – |
| COc1ccc2ccccc2c1CN1CCc2nnc(C(NS(C)(=O)=O)C(C)C)n2CC1 (configuration not stated) | inactive: 11.9% | – |
| COc1cc(CN2CCC3(CCC(CNC(=O)c4cc(C)nn4C)O3)CC2)ccc1F (configuration not stated) | inactive: -9.08% | – |
| COc1cccc(Cn2c(=O)c(-c3ccc(F)cc3)nc3cncnc32)c1 | inactive: 4.72% | – |
| N=C(N)c1ccccc1 | inactive: -12% [at 75.8 µM] | – |
| Cc1ccccc1-c1ccc2ncnc(NC3CC3)c2c1 | inactive: -6.7% | – |
| COc1ccc(CNc2ncnc3ccc(-c4ccccc4CN(C)C)cc23)c(OC)c1 | inactive: -26.4% | – |

| SMILES | activity change, negative = inhibition | Potency |
| --- | --- | --- |
| CN(C)Cc1ccccc1-c1ccc2ncnc(N3CCOCC3)c2c1 | inactive: 7.39% | – |
| CCCCCCCCCCCCCCCCCCN(CCCCCCCCCCCCCCCCCC)c1ccc(/C=C/c2ccnc3ccccc23)cc1 | inactive: 20.8% | – |
| CC(=O)NCCNc1nc(-c2ccccc2CN(C)C)nc2ccccc12 | inactive: 8.44% | – |
| CCC(C)C(=O)OC1C2CC3=C4CC(=O)OC(c5ccoc5)[C@]4(C)CCC3[C@@](C)(C2=O)C(CC(=O)OC)C1(C)C (some centres not stated) | inactive: -5.68% | – |
| O=C(NCCNCC(O)COc1ccc(O)cc1)N1CCOCC1 (configuration not stated) | inactive: 13% | – |
| Nc1ncnc2c1nc(Br)n2C1CC(O)C(CO)O1 (configuration not stated) | inactive: 22.2% | – |
| Nc1nc(SCc2ccc([N+](=O)[O-])cc2)c2ncn([C@@H]3O[C@H](CO)[C@@H](O)[C@H]3O)c2n1 | inactive | – |
| COc1ccc(CCN2CCC(Nc3nc4ccccc4n3Cc3ccc(F)cc3)CC2)cc1 | inactive | – |
| CN(C)CCOC1=Cc2ccccc2Sc2ccc(Cl)cc21 | inactive: 10.2% | – |
| COc1ccccc1CN1CC2(CCN(C(=O)c3cc(C(F)(F)F)cc(C(F)(F)F)c3)CC2)C1 | inactive: 0.446% | – |
| CCN(Cc1ccncc1)C(=O)C(CO)c1ccccc1 (configuration not stated) | inactive | – |
| CS(=O)(=O)Nc1cccc(-c2ccc3ncnc(Nc4ccccc4)c3c2)c1 | inactive: -6.42% | – |
| COc1cccc(Cn2c(=O)c(-c3ccc(F)cc3)nc3cnc(N(C)C)nc32)c1 | inactive: 0.383% | – |
| CC(C)NC[C@@H](O)COc1ccc(COCCOC(C)C)cc1 | inactive: 3.56% | – |
| Nc1nc(O)c2ncn([C@H]3CC[C@@H](CO)O3)c2n1 | inactive: 3.36% | – |
| Cn1cccc1C(=O)N1CCC2(CC1)CN(c1cccc(-c3ccccc3)c1)C2 | inactive: -9.23% | – |
| COc1ccc(C(=O)N2CCC[C@@]3(CCN(c4ccccc4)C3)C2)cc1 | inactive: 8.33% | – |
| COC(=O)c1cc(CNC(=O)c2cnsn2)cc(NC(=O)c2ccccc2OC)c1 | inactive: 11.8% | – |
| O=c1c(-c2cccs2)nc2cnc(Oc3ccccc3)nc2n1C1CC1 | inactive: 6.28% | – |
| CN(Cc1ccco1)c1ccnc(-c2cccc(NS(C)(=O)=O)c2)n1 | inactive: 16.1% | – |
| CCOC(=O)C1CCCCN1C(=O)c1cnn(-c2nccc(-c3cc(C)sc3C)n2)c1C1CC1 (configuration not stated) | inactive: -24.2% | – |
| CN1C2CCCC1CC(NC(=O)c1nn(C)c3ccccc13)C2 (configuration not stated) | inactive: 7.95% [at 75.8 µM] | – |
| COc1cccc(NC(=O)/C=C\c2ccc(Cl)cc2)c1 | inactive: 10.9% | – |
| C=C1C(=C/C=C2\CCC[C@]3(C)[C@@H]([C@H](C)CCCC(C)(C)O)CC[C@@H]23)C[C@@H](O)C[C@@H]1O | inactive: -2.48% | – |
| C#C[C@@]1(O)CCC2C3CCC4=CC(=O)CCC4C3CC[C@@]21CC (some centres not stated) | inactive: 4.59% | – |

| SMILES | activity change, negative = inhibition | Potency |
| --- | --- | --- |
| C=C(c1ccc2ccccc2n1)c1cccs1 | inactive: 15.3% | – |
| COc1ccc(CN2CC[C@H]3C=CC[C@@H](C(=O)NC4CCCCC4)[C@H]3C2=O)cc1OC | inactive: -9.2% | – |
| COCCNc1ncnc2ccc(-c3ccccc3C(F)(F)F)cc12 | inactive: 17% | – |
| Cc1ccc2nc(SCC(=O)N3CCC4(CC3)CC4C(=O)Nc3ccc(F)c(F)c3)[nH]c2c1 (configuration not stated) | inactive: -18.4% | – |
| CCCCCCCC/C=C\CCCCCCCC(=O)OC[C@@H](O)COP(=O)(O)O | inactive: 15.7% [at 15.3 µM] | – |
| COc1ccc(/C=C/C(=O)OCCC(C)C)cc1 | inactive: -6.01% | – |
| C=C1CC[C@H](O)CC1=C/C=C1\CCC[C@]2(C)[C@@H]([C@H](C)CCCC(C)(C)O)CC[C@@H]12 | inactive: -10.6% | – |
| O=C1CCN(Cc2ccccc2)CCN1[C@H](CSc1ccccc1)Cc1ccccc1 | inactive: 2.4% | – |
| COCC(=O)N1CCC2(CCCN(c3ccc(-c4ccccc4)cc3)C2)CC1 | inactive: -6.43% | – |
| COc1ccc(-c2nc3cnc(N(C)C)nc3n(C)c2=O)cc1 | inactive: 17% | – |
| CCn1c(-c2ccccc2F)nc2cc(C(=O)N3CCCC(CO)C3)cc(NC(C)=O)c21 (configuration not stated) | inactive: 9.2% | – |
| COc1cc(-c2cc(C)c3cccc(OC)c3n2)cc2c1OCCN(C(=O)Cn1nc(C)cc1C)C2 | inactive: -11% | – |
| Oc1c(I)cc(I)c2cccnc12 | inactive: 24.1% | – |
| CC1CCC(=O)N(CCSc2ccccc2)CC1 (configuration not stated) | inactive: -5.14% | – |
| CCC(=O)O | inactive: 18.8% | – |
| C=NCc1cc2c(OC[C@@H](O)CNC(C)(C)C)cccc2[nH]1 | inactive: 12.1% | – |
| CCN(CC)CCNC(=O)c1cc(S(C)(=O)=O)ccc1OC | inactive | – |
| CN(C)C(=O)c1ccc(-c2nc(NCc3cccnc3)c3ccccc3n2)cc1 | inactive: 0.843% | – |
| COc1ccc(C(=O)N2CCC[C@@]3(CCN(Cc4ccccc4OC)C3)C2)cc1 | inactive: 4.5% | – |
| O=C(CCCN1CC=C(n2c(=O)[nH]c3ccccc32)CC1)c1ccc(F)cc1 | inactive | – |
| O=c1cnc2cnc(Nc3ccccc3)nc2n1C1CC1 | inactive: 4.84% | – |
| CC(=O)NCCNc1nc(-c2cccc(NS(C)(=O)=O)c2)nc2ccccc12 | inactive: 11.1% | – |
| C=CC(C1=CC(=O)C=CC1=O)c1ccc(O)cc1 (configuration not stated) | inactive: -4.59% | – |
| Cc1c(C(=O)NCC2(N3CCCCC3)CCCC2)cnn1-c1nccc(-c2ccccc2F)n1 | inactive: 5.61% | – |
| CCCCCC(C)N (configuration not stated) | inactive: 16.8% | – |

| SMILES | activity change, negative = inhibition | Potency |
| --- | --- | --- |
| CC(C)CN1CC2(CCN(C(=O)c3csnn3)CC2)C1 | inactive: 3.84% | – |
| COc1ccc2cc(CCC(C)=O)ccc2c1 | inactive | – |
| O=C(O)CCC(=O)OC[C@@H](NC(=O)C(Cl)Cl)[C@H](O)c1ccc([N+](=O)[O-])cc1 | inactive: -1.66% | – |
| C=C[C@H](N)CCC(=O)O | inactive: 4.32% | – |
| Cc1cccc(/C=C/c2ccccc2)n1 | inactive | – |
| Cc1c(C(=O)N2CCCC2)sc2ncnc(NCCN(C)C)c12 | inactive: 10.3% | – |
| CCn1cc(C(=O)O)c(=O)c2ccc(C)nc21 | inactive | – |
| C=C(NC(=O)C(=C)NC(=O)c1csc(C2=N[C@@H]3c4csc(n4)[C@H]4NC(=O)c5csc(n5)[C@H]([C@](C)(O)[C@@H](C)O)NC(=O)[C@H]5CSC(=N5)C(=CC)NC(=O)C([C@@H](C)O)NC(=O)c5csc(n5)[C@]3(CC2)NC(=O)[C@H](C)NC(=O)C(=C)NC(=O)[C@H](C)NC(=O)C([C@@H](C)CC)NC2C=Cc3c([C@H](C)O)cc(nc3C2O)C(=O)O[C@@H]4C)n1)C(N)=O (some centres not stated) | inactive: 8.03% [at 75.8 µM] | – |
| Cc1cc(C)cc(C(=O)N(C)[C@H](Cc2ccc(-c3ccccc3)cc2)C(=O)N[C@@H](Cc2c[nH]c3ccccc23)C(=O)O)c1 | – | active: 112 µM |
| CC(=O)Nc1ccc(C(=O)N2CCCC(n3cc(C(=O)NCC(C)C)nn3)C2)cc1 (configuration not stated) | inactive: 2.69% | – |
| COC(=O)[C@]1(C)CCC[C@]2(C)c3ccc(C(C)C)cc3C(=O)CC12 (some centres not stated) | inactive: 5.81% | – |
| O=c1[nH]c2ccccc2c2ccccc12 | inactive | – |
| C#CCN(C)Cc1ccccc1 | inactive | – |
| CC(=O)OC1C(=O)[C@@]2(C)C(O)CC3OC[C@]3(OC(C)=O)C2C(OC(=O)c2ccccc2)[C@]2(O)CC(OC(=O)C(O)C(NC(=O)c3ccccc3)c3ccccc3)C(C)=C1C2(C)C (some centres not stated) | inactive: 1.21% | – |
| COc1c2ccccc2nc2occc12 | inactive: 7.29% | – |
| CC1OCC23CC[C@@]4(C)CCC(C)(C)C[C@H]4[C@]2(C)CCC12C3CC[C@@]1(C)C2C(=O)CC(=O)[C@@H]1C (some centres not stated) | inactive: 3.91% | – |
| O=c1c(O)c(-c2cc(O)c(O)c(O)c2)oc2cc(O)cc(O)c12 | – | active: 35.5 µM and active: 39.8 µM and inactive |
| CC(C)c1ccc(C(=O)C[N+]2(C)CCOCC2)cc1 | inactive: 25.1% | – |
| COc1ccc(-n2c(=O)c(CCc3ccccc3)nc3cnc(N4CCOCC4)nc32)cc1 | inactive: 2.16% | – |
| CCNc1ncc2nc(-c3ccc(Cl)cc3)c(=O)n(CCC#N)c2n1 | inactive: 11.9% | – |
| CN1CCN(c2ncc3nc(CCc4ccccc4)c(=O)n(C)c3n2)CC1 | inactive: -12.2% | – |
| COC(=O)c1cc(CNC(=O)c2ccccc2)cc(NC(=O)c2ccccc2OC)c1 | inactive: 6% | – |
